In PubChem BioAssay AID1345083 (National Center for Advancing Translational Sciences (NCATS), 2018):
Among all 94,000 compounds or so, about 6,200 (6.6%) were called active. Inconclusive results, whose numbers are uncertain, are shown with a selection of clear calls. Calls come from the whole dose curve; as a rule, active = well fitted inhibition curve with a large enough effect; inconclusive = small, poorly fitted or top-dose-only effect; inactive = flat fitted curve, though single readings scatter. Potencies beside an inconclusive call are fits to weak or partial responses and may not hold up.

Assay: Cytotoxic Profiling in HEK 293 Cell Line of Diverse Libraries Using Quantitative High-Throughput Screening; note: nearly all actives have a fitted effect of over 60% in size
Conditions: HEK 293 viability, ATP luminescence (CellTiter-Glo), 48-72 h; series mostly up to 115 µM
Outline: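 Cells seeded first (HEK 293, 250 cells/well), then compound added by pintool. Incubation ran 48 or 72 hr at 37 degree Celsius. CellTiter-Glo was added and luminescence imaged after 10 min at room temperature.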
Potency is the fitted concentration of half-maximal effect; tags give direction and shape of the fitted curve.

Question: Which Potency does the source give for O=C(NCc1ccc2c(c1)OCO2)C1CC(c2ccccc2)CN(C(=O)NCc2ccccc2)C1 (stereo unspecified) here?
Answer: inconclusive: 89.1 µM [inhibitor, single point]

Question: For COc1ccc(-c2cnc3n[nH]c(-c4ccc(F)cc4C)c3n2)cc1, which Potency is on record?
Answer: active: 44.7 µM

Question: With CNCC(=O)N1C[C@@H](C(=O)O)[C@H](c2ccccc2)C1 as the molecule, how does the Potency read?
Answer: inactive

Question: For CCOc1cccc(CNC(=O)c2c(OCC(C)C)cc(=O)n3c2CCCCC3)c1, which Potency is on record?
Answer: inconclusive: 50.1 µM [inhibitor, partial curve, poor fit]

Question: Which Potency does the source give for O=C(c1n[nH]c(=O)c2ccccc12)N1CCC[C@H](n2c(=O)n(CC3CC3)c3cccnc32)C1 here?
Answer: inconclusive: 79.4 µM [inhibitor, partial curve, poor fit]

Question: For CCCNC(=O)N1CCC(c2noc(-c3ccccc3)n2)C1 (stereo unspecified), which Potency is on record?
Answer: inconclusive: 39.8 µM [inhibitor, partial curve, poor fit]

Question: For CCC(c1cccs1)N1C(=O)[C@H]2CN(S(=O)(=O)c3ccccc3C)C[C@H]2C1=O (stereo partly specified), which Potency is on record?
Answer: inconclusive: 70.8 µM [inhibitor, single point]

Question: With O=C(Cc1ccccc1)N1CCC2(CC1)CC(N(Cc1ccccc1)C1CC1)CCO2 (stereo unspecified) as the molecule, how does the Potency read?
Answer: inconclusive: 89.1 µM [inhibitor, single point]

Question: With COc1ccc(CCNC(=O)c2c(C)noc2-c2ccccc2Cl)cc1OC as the molecule, how does the Potency read?
Answer: inconclusive: 89.1 µM [inhibitor, single point]

Question: Which Potency does the source give for O=C(NCc1ccc(F)cc1)C1CCCN1C(=O)c1cccc(-c2ccccn2)c1 (stereo unspecified) here?
Answer: inactive

Question: With O=C(NC1CCCC1)C1CCN(c2nccc(Nc3ccccc3F)n2)CC1 as the molecule, how does the Potency read?
Answer: inconclusive: 39.8 µM [inhibitor, partial curve]

Question: For CC(C)N1C[C@H](O)C[C@H]1c1nnc2n1CCN(C(=O)CCc1ccccc1)CC2, which Potency is on record?
Answer: inactive

Question: With Cc1[nH]cnc1-c1nccn1CCCOC1CCN(C)CC1 as the molecule, how does the Potency read?
Answer: inactive

Question: With CC(c1ccon1)N(C)C(=O)c1cc(CN2CCC(Cc3ccccc3)CC2)on1 (stereo unspecified) as the molecule, how does the Potency read?
Answer: inconclusive: 56.2 µM [inhibitor, partial curve, poor fit]

Question: For C=CCN(Cc1cnc(-c2cccc(C)c2)nc1)Cc1ccccn1, which Potency is on record?
Answer: inconclusive: 89.1 µM [inhibitor, single point]

Question: With Cc1ccccc1C(=O)N1CCCC(C(=O)N2CCCC(c3nc4ncccc4[nH]3)C2)C1 (stereo unspecified) as the molecule, how does the Potency read?
Answer: inactive

Question: For CN1CCN(CC2(O)CCC3(CCN(S(=O)(=O)N(C)C)CC3)CC2)CC1, which Potency is on record?
Answer: inactive

Question: With CCn1cc(CN(C)C2CCc3nn(CC4CC4)c(=O)n3CC2)c(C)n1 (stereo unspecified) as the molecule, how does the Potency read?
Answer: inactive

Question: Which Potency does the source give for COc1cccc(CC(=O)N2CCCC3(C2)NC(=O)N(Cc2ccc(C)cc2)C3=O)c1 (stereo unspecified) here?
Answer: inactive

Question: With CC(C)Cc1ccc(CN2CCN3C(=O)CNC(=O)C3C2)cc1 (stereo unspecified) as the molecule, how does the Potency read?
Answer: inconclusive: 50.1 µM [inhibitor, partial curve, poor fit]

Question: With COC1CCN(C(=O)c2cnc3c(c2)N([S+](=O)([O-])c2cccnc2)CCC3)CC1 as the molecule, how does the Potency read?
Answer: inactive

Question: Which Potency does the source give for COc1cccc(CCc2ccccc2C(=O)N2CC[C@H](CO)[C@@H](O)C2)c1 here?
Answer: inactive

Question: For COc1cccc([S+](=O)([O-])N2CCC3(COc4ccccc4C(=O)N3)C2)c1 (stereo unspecified), which Potency is on record?
Answer: inconclusive: 56.2 µM [inhibitor, partial curve, poor fit]

Question: Which Potency does the source give for O=C(c1cccc(Cl)c1)N1CCN(C(=O)c2nc3cccnc3n(Cc3ccccc3)c2=O)CC1 here?
Answer: inconclusive: 89.1 µM [inhibitor, single point]

Question: For Cc1cc(CNC(=O)C(C)Cn2nc(C)nc2C)c2[nH]c(-c3ccccc3)c(C)c2c1 (stereo unspecified), which Potency is on record?
Answer: inconclusive: 20 µM [inhibitor, full curve, poor fit]

Question: Which Potency does the source give for COc1cncc(Nc2cnc3ccc(-c4ccc(F)cc4)nn23)c1 here?
Answer: active: 100 µM

Question: Which Potency does the source give for Cc1nc([C@H]2CCN(Cc3ccc(C)c(C)c3)C[C@H]2NC(=O)C2CCOCC2)n[nH]1 here?
Answer: inactive

Question: Which Potency does the source give for O=C(c1ccc2c(c1)OCO2)N1CCC2(CC1)N=C(c1ccc(Br)cc1)NO2 here?
Answer: inconclusive: 14.1 µM [inhibitor, full curve, poor fit]

Question: For COCCCNc1cc(-c2ccsc2)nc2c(C)noc12, which Potency is on record?
Answer: inactive

Question: With CC(=O)N1CCC(N2C[C@@H]3OCC(=O)N(Cc4ccccn4)[C@@H]3C2)CC1 as the molecule, how does the Potency read?
Answer: inactive

Question: For O=C(Cn1cccc1-c1nc(-c2ccc3c(c2)OCO3)no1)N1CCc2ccccc21, which Potency is on record?
Answer: inactive

Question: For O=C(NC1C[C@H]2CC[C@@H](C1)N2C(=O)C1(c2ccccc2)CC1)c1ccc(F)cc1 (stereo partly specified), which Potency is on record?
Answer: inactive

Question: With O=C(C[C@@H]1CCNC[C@@H]1Cc1cc(-c2ccc(F)cc2)on1)N1CCC(Cc2ccccc2)CC1 as the molecule, how does the Potency read?
Answer: active: 31.6 µM

Question: Which Potency does the source give for CN1CC2(CCN(Cc3ccc(-c4ccc(Cl)cc4)o3)C2)OC1=O (stereo unspecified) here?
Answer: inconclusive: 50.1 µM [inhibitor, partial curve, poor fit]

Question: For Cc1cc2nc3n(c(=O)c2n1CC(=O)Nc1ccc(Cl)cc1F)CCCC3, which Potency is on record?
Answer: inconclusive: 79.4 µM [inhibitor, single point]

Question: With COc1ccc(OCC2CN(Cc3ccccc3)C(=O)c3ccc(C)nc3O2)cc1 (stereo unspecified) as the molecule, how does the Potency read?
Answer: inconclusive: 39.8 µM [inhibitor, single point]

Question: With CN(C)C[C@@H]1CN(Cc2ccccc2)C[C@H]1NS(=O)(=O)c1cccc(F)c1 as the molecule, how does the Potency read?
Answer: inactive

Question: With O=C(N[C@@H]1CN(c2ccncn2)C[C@H]1CO)c1cccc(Cl)c1 as the molecule, how does the Potency read?
Answer: inactive

Question: With CCOc1cc(C)c(CN2CCCC(O)(CN(C)C)C2)cc1C(C)C (stereo unspecified) as the molecule, how does the Potency read?
Answer: active: 35.5 µM

Question: With CCN(C)C(=O)CCc1c(C)nn(-c2cccc(C)c2)c1Oc1ccccc1 as the molecule, how does the Potency read?
Answer: active: 39.8 µM

Question: For CC(C)(C)OCC1CN(Cc2ccccc2)[S+](=O)([O-])c2cnccc2O1 (stereo unspecified), which Potency is on record?
Answer: inconclusive: 35.5 µM [inhibitor, partial curve, poor fit]

Question: Which Potency does the source give for COc1ccc(-c2nc(C(C)C)nc3c2CCN(C(=O)c2ccccc2F)CC3)cc1 here?
Answer: inconclusive: 50.1 µM [inhibitor, partial curve, poor fit]

Question: With Fc1ccc(-c2noc([C@@H]3Cc4nc[nH]c4CN3Cc3cccs3)n2)cc1Cl as the molecule, how does the Potency read?
Answer: inconclusive: 63.1 µM [inhibitor, partial curve, poor fit]

Question: With COc1ccc2[nH]c(C[C@@H]3C[C@@H](C(C)C)[C@H](CNC4CCN(C(C)=O)CC4)C=C3C)nc2n1 as the molecule, how does the Potency read?
Answer: inconclusive: 89.1 µM [inhibitor, single point]

Question: For CCCCc1cc(C[C@@H]2C[C@H](NC(=O)C3CC3)C2(C)C)no1, which Potency is on record?
Answer: inconclusive: 44.7 µM [inhibitor, partial curve, poor fit]

Question: For Cc1cc(=O)n(CC(=O)N2CCN(c3ccc(F)cc3)CC2)c(N2CCc3ccccc3C2)n1, which Potency is on record?
Answer: inconclusive: 89.1 µM [inhibitor, single point]

Question: With Cn1c2c(c3cc(F)ccc31)CN(C(=O)Nc1cccc(Cl)c1)CC2 as the molecule, how does the Potency read?
Answer: inconclusive: 35.5 µM [inhibitor, full curve, poor fit]

Question: Which Potency does the source give for O=C(NCc1cccc(Cl)c1)C1CCN(c2nccc(Nc3ccccc3Cl)n2)CC1 here?
Answer: inconclusive: 79.4 µM [inhibitor, partial curve]

Question: Which Potency does the source give for CC1(C)[C@H](Cc2cc(COc3ccccc3)on2)C[C@@H]1NC(=O)NCc1ccccc1 here?
Answer: active: 63.1 µM

Question: For COc1cccc(CC(=O)Nc2ccc3ncnc(N4CCCC4)c3c2)c1, which Potency is on record?
Answer: inconclusive: 56.2 µM [inhibitor, partial curve, poor fit]

Question: For Cc1noc(C)c1[S+](=O)([O-])N1CCN(c2ccc3nnc(-c4ccccc4)n3n2)CC1, which Potency is on record?
Answer: inactive

Question: For CCC(=O)N(C1CCOCC1)C1CCN(S(=O)(=O)c2ccc(C)c(C)c2)CC1, which Potency is on record?
Answer: inconclusive: 89.1 µM [inhibitor, single point]

Question: With O=C(Nc1cccnc1)[C@@H]1C[C@@H](c2ccc(F)cc2)N(Cc2ccccc2)C1 as the molecule, how does the Potency read?
Answer: inconclusive: 63.1 µM [inhibitor, partial curve, poor fit]

Question: For CS(=O)(=O)N1CCCC1c1noc(CCC(=O)N2CCCCCC2)n1 (stereo unspecified), which Potency is on record?
Answer: inactive

Question: Which Potency does the source give for CC(C)(C)C1CN(Cc2cccs2)C(=O)c2cccnc2O1 (stereo unspecified) here?
Answer: inconclusive: 39.8 µM [inhibitor, partial curve, poor fit]

Question: For CCN1CCC(CCNC(=O)C2CCCN(S(C)(=O)=O)CCC(=O)NCC2)CC1 (stereo unspecified), which Potency is on record?
Answer: inactive

Question: Which Potency does the source give for COc1ccc(-c2cn(C)c(=O)n3cc(COc4ccc(Cl)cc4)nc23)cn1 here?
Answer: inconclusive: 31.6 µM [inhibitor, full curve]

Question: For C[C@H](O)C(=O)N1CCc2ccc(S(=O)(=O)NCCOc3ccccc3)cc2C1, which Potency is on record?
Answer: inconclusive: 79.4 µM [inhibitor, single point]

Question: Which Potency does the source give for COc1ccc(C2=NOC3(CCN(Cc4ccc(N(C)C)cc4)C3)C2)cc1 (stereo unspecified) here?
Answer: inconclusive: 56.2 µM [inhibitor, partial curve, poor fit]

Question: With COc1ccc(NC(=O)Cn2c(-c3ccc(F)cc3)nc(C)c(CCO)c2=O)cc1Cl as the molecule, how does the Potency read?
Answer: active: 35.5 µM

Question: Which Potency does the source give for COc1ccc(CC(=O)NC2CCN(c3nc4ncccc4o3)CC2)cc1 here?
Answer: inactive

Question: For CN1CC(=O)N(C2CCC2)Cc2c(NCc3ccccc3)ncnc21, which Potency is on record?
Answer: inconclusive: 89.1 µM [inhibitor, partial curve, poor fit]

Question: Which Potency does the source give for Cn1c(C(=O)N[C@@H]2COCC[C@H]2Oc2ccc(C#N)cc2)cc(=O)n(C)c1=O here?
Answer: inactive

Question: Which Potency does the source give for O=C(c1ccc(N2CCOCC2)nc1)N1CCCC(c2ccccc2)CC1 (stereo unspecified) here?
Answer: inconclusive: 89.1 µM [inhibitor, single point]

Question: Which Potency does the source give for O=C(NCC(=O)N1CCC(Cc2ccccc2)CC1)c1ccc(-c2cccc(C(F)(F)F)c2)cc1 here?
Answer: inconclusive: 10 µM [inhibitor, full curve, poor fit]

Question: For Cc1ccc(NC(=O)C2CCc3ncc(-c4ccsc4)n3C2)cc1C (stereo unspecified), which Potency is on record?
Answer: inconclusive: 50.1 µM [inhibitor, partial curve, poor fit]
